This is one part of the list.
B1: chr1:35420597:35420698:+|3pUTR|ENSG00000146463|msi1|total|mutant (ssRNA)
RNA: GGGAGUUCUACAGUCCGACGAUCGUUCCUCUUAUUUUGUCUUUUGCACCAGUUUCUGGAGGCCCUUGUCAUUUCAAAAAGGACCGUCUCUUUUCUUACUCUGGCAAACCUGUGAGUGAUUCCACAAAGAUACAGUAUUACUUACAACAGAGGAUUGAGCAUCA
B2: chr19:48970371:48970709:-|CDS|ENSG00000104812|control|control|control (ssRNA)
RNA: GGGAGUUCUACAGUCCGACGAUCCUAGGCCGGGUAGGACCCCCACUUUCCUAUCCUCUCCUGGCAAAUCAGCAGCUCCUGGCUAGGGGUCUUUGGUGCAGGGUGCAGGGUCUCAUCCUACUUGUAACAGUUGCUGUCCCUUUACAACAGAGGAUUGAGCAUCA
B3: chr18:70325936:70326038:+|CDS|ENSG00000170677|unk|total|mutant (ssRNA)
RNA: GGGAGUUCUACAGUCCGACGAUCAGCUUUCGCUCCCAUGGUAAAACACUUCACACCCGAAUUGAGCACUCAAAUGGCCGGUUCCGCUUUUAUGAACAGCCAGAUGUGGAAGGACAUACGUCCACCGUUGAUCUAAUUGAGCAUCAACAGAGGAUUGAGCAUCA
B4: chrX:74591538:74591767:-|CDS|ENSG00000131263|unk|FALSE|bound_elsewhere (ssRNA)
RNA: GGGAGUUCUACAGUCCGACGAUCUUGCCCUUCCUUAGCCUGGCUCAGUUUUUCCUCUUAAAUGAGGAUGAUGAUGACCAACCUAGAGGACUCACCAAAGAACAGAUUGACAACUUGGCAAUGAGAAGUUUUGGUGAAAAUGAUCAACAGAGGAUUGAGCAUCA
B5: chr6:44253573:44253761:+|CDS_3pUTR|ENSG00000096384|msi1_unk|total|mutant (ssRNA)
RNA: GGGAGUUCUACAGUCCGACGAUCUCGCAUGGAAGAAGUCGAUCCGGUCCGGAGUUCACCGUUGGAAAACUUGUGCCCUUGUACCGUGUCCCCAUGGGCUCCCACUGCAGCCUCGAGUGCCCCUGUCCCACCUGGCUCCCCCUGCAACAGAGGAUUGAGCAUCA
B6: chr15:48879495:48879609:+|3pUTR|ENSG00000255302|msi1|FALSE|bound_elsewhere (ssRNA)
RNA: GGGAGUUCUACAGUCCGACGAUCGACACUAAAUGUGUGUGAAUGUACAAAGAAAACAAACCAUUGCUUAUGCUGUUAUAUACUAGAGAAAUUUUGUUUUGCUUGCUGUUUUAACUUGACAGAUGAAGGACUUUAGUUGAACUUCAACAGAGGAUUGAGCAUCA

These binders were tested against MSI1 full-length (mouse, UniProt Q61474 1-362) (assay: nsRBNS (natural sequence RNA bind-n-seq); RBNS binding buffer (assumed for nsRBNS): 25 mM Tris pH 7.5, 150 mM KCl, 3 mM MgCl2, 0.01% Triton X-100, 500 ug/ml BSA, 20 U/ml SUPERase-In, 4 C; UNK is unkempt and MSI1 is Musashi-1; names of the RNAs are library labels; protein concentration not given here; high values mean tight binding).
Sequence of UniProt Q61474 (Q61474 whole entry): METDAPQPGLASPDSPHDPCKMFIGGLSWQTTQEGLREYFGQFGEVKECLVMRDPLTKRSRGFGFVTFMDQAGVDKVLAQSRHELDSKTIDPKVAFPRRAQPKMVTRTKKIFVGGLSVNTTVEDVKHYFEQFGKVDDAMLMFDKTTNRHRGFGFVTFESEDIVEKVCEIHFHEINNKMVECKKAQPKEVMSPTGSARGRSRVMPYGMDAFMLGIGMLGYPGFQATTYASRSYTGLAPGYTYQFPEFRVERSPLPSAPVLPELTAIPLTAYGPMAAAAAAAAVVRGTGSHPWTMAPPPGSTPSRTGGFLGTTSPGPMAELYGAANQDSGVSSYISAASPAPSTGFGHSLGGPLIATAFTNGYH

Binder	binding signal [enrichment R]
B1	0.515
B2	0.678
B3	0.315
B4	0.258
B5	0.475
B6	1.09
